MIC of nasopharyngeal S. pneumoniae isolates by broth microdilution (range and time not stated); higher = less susceptible. No active / inactive call per row; the paper counts penicillin above 0.06 and amoxicillin above 0.5 mg/L as non-susceptible (EUCAST). The lowest value, 0.01, is taken as the floor ('<='); the source prints it plain. Penicillin G is assumed for 'penicillin'. Isolates are numbered anew. PBP alleles are the type numbers of penicillin-binding proteins 1a, 2b and 2x; equal numbers mean equal sequences.
Legend:
[1] = compound: CC1(C)S[C@@H]2[C@H](NC(=O)[C@H](N)c3ccc(O)cc3)C(=O)N2[C@H]1C(=O)O [amoxicillin]; experiment: Broth microdilution.
[2] = compound: CC1(C)S[C@@H]2[C@H](NC(=O)Cc3ccccc3)C(=O)N2[C@H]1C(=O)O [penicillin G]; experiment: Broth microdilution.

| Test System | MIC [1] [mg/L] | MIC [2] [mg/L] |
| --- | --- | --- |
| Streptococcus pneumoniae isolate 119 (PBP alleles 1a 2b 2x: 2_0_2, serotype: 15B/C) | ≤ 0.01 | 0.03 |
| Streptococcus pneumoniae isolate 120 (PBP alleles 1a 2b 2x: 7_67_1, serotype: 23B1) | 0.03 | 0.125 |
| Streptococcus pneumoniae isolate 121 (PBP alleles 1a 2b 2x: 2_4_0, serotype: 38) | 0.03 | 0.03 |
| Streptococcus pneumoniae isolate 122 (PBP alleles 1a 2b 2x: 0_0_0, serotype: 15B/C) | 0.03 | 0.03 |
| Streptococcus pneumoniae isolate 123 (PBP alleles 1a 2b 2x: 2_0_2, serotype: 21) | 0.03 | 0.03 |
| Streptococcus pneumoniae isolate 124 (PBP alleles 1a 2b 2x: 2_0_6, serotype: 23A) | 0.03 | 0.03 |
| Streptococcus pneumoniae isolate 125 (PBP alleles 1a 2b 2x: 2_3_2, serotype: 3) | 0.03 | 0.03 |
| Streptococcus pneumoniae isolate 126 (PBP alleles 1a 2b 2x: 0_0_0, serotype: 15B/C) | ≤ 0.01 | ≤ 0.01 |
| Streptococcus pneumoniae isolate 127 (PBP alleles 1a 2b 2x: 2_6_0, serotype: 11A) | ≤ 0.01 | ≤ 0.01 |
| Streptococcus pneumoniae isolate 128 (PBP alleles 1a 2b 2x: 7_67_1, serotype: 23B1) | 0.125 | 0.25 |
| Streptococcus pneumoniae isolate 129 (PBP alleles 1a 2b 2x: 2_6_0, serotype: 11A) | ≤ 0.01 | 0.03 |
| Streptococcus pneumoniae isolate 130 (PBP alleles 1a 2b 2x: 1_0_0, serotype: 15A) | ≤ 0.01 | ≤ 0.01 |
| Streptococcus pneumoniae isolate 131 (PBP alleles 1a 2b 2x: 0_0_2, serotype: 10A) | ≤ 0.01 | 0.03 |
| Streptococcus pneumoniae isolate 132 (PBP alleles 1a 2b 2x: 2_0_2, serotype: 21) | 0.03 | 0.03 |
| Streptococcus pneumoniae isolate 133 (PBP alleles 1a 2b 2x: 2_4_0, serotype: 38) | 0.03 | 0.03 |
| Streptococcus pneumoniae isolate 134 (PBP alleles 1a 2b 2x: 0_0_New, serotype: 35B) | 0.06 | 0.06 |
| Streptococcus pneumoniae isolate 135 (PBP alleles 1a 2b 2x: 24_27_28, serotype: 15A) | 0.25 | 0.25 |
| Streptococcus pneumoniae isolate 136 (PBP alleles 1a 2b 2x: 55_60_43, serotype: Non-typeable/NCC2a) | 0.125 | 0.125 |
| Streptococcus pneumoniae isolate 137 (PBP alleles 1a 2b 2x: 1_0_0, serotype: 15A) | ≤ 0.01 | ≤ 0.01 |
| Streptococcus pneumoniae isolate 138 (PBP alleles 1a 2b 2x: 2_0_2, serotype: 15B/C) | 0.03 | 0.03 |
| Streptococcus pneumoniae isolate 139 (PBP alleles 1a 2b 2x: 0_0_0, serotype: 15B/C) | 0.03 | 0.03 |
| Streptococcus pneumoniae isolate 140 (PBP alleles 1a 2b 2x: 25_69_56, serotype: Non-typeable/NCC2b) | 1 | 0.5 |
| Streptococcus pneumoniae isolate 141 (PBP alleles 1a 2b 2x: 12_0_0, serotype: 31) | 0.03 | 0.03 |
